According to PubChem BioAssay AID206 (DTP/NCI, 2004):
Inconclusive results are not listed. Certain results were filed several times, with different values. The list is limited to them. There may be further records. The values listed for one entry are repeats across runs, samples, wells, individuals or studies.

Test system: nude mice, HT29 intrarenal xenograft, tumor weight T/C
Experiment: NCI In Vivo Anticancer Drug Screen. Data for tumor model HT29;CX-1 Human Adenocarcinoma (MER+) (intrarenal inoculation) in NU/NU Swiss (nude) mice
Conditions: endpoint: mean tumor weight change, higher = larger tumour
Description: The antitumor activity of compounds was measured in mice bearing transplantable tumors. Survival or tumor size were measured and the results are expressed as the measurement made in the treated group (T) divided by the measurement made in the vehicle treated control group (C). The tumor model used in this assay is HT29;CX-1 Human Adenocarcinoma (MER+) (intrarenal inoculation) in NU/NU Swiss (nude) mice

[1] = dose: 50.0 mg/kg/injection, schedule: Q01DX010 (sc), vehicle: Klucel (hydroxypropylcellulose) (HPC)
[2] = dose: 100.0 mg/kg/injection, schedule: Q01DX010 (sc), vehicle: Klucel (hydroxypropylcellulose) (HPC)
[3] = dose: 2.0 mg/kg/injection, schedule: Q01DX010 (sc), vehicle: saline
[4] = dose: 4.0 mg/kg/injection, schedule: Q01DX010 (sc), vehicle: saline
[5] = dose: 600.0 mg/kg/injection, schedule: Q04DX004 (sc), vehicle: saline with Tween-80
[6] = dose: 16.0 mg/kg/injection, schedule: Q01DX010 (sc), vehicle: saline
[7] = dose: 200.0 mg/kg/injection, schedule: Q01DX010 (sc), vehicle: Klucel (hydroxypropylcellulose) (HPC)

O=C(CCCN1CCC(O)(c2cccc(C(F)(F)F)c2)CC1)c1ccc(F)cc1
T/C (dose: 25.0 mg/kg/injection, schedule: Q01DX010 (sc), vehicle: Klucel (hydroxypropylcellulose) (HPC)): -8 % of control, 12 % of control, 41 % of control
T/C [1]: 25 % of control, 48 % of control, 56 % of control
T/C [2]: -3 % of control and 43 % of control

N[C@@H](Cc1ccc(N(CCCl)CCCl)cc1)C(=O)O
T/C (dose: 1.0 mg/kg/injection, schedule: Q01DX010 (sc), vehicle: saline): 10 % of control and 83 % of control
T/C [3]: 27 % of control, 56 % of control, 64 % of control
T/C [4]: -27 % of control and 3 % of control

CCCCCC1c2cc(O)ccc2OC1N1CCOCC1 (stereo unspecified)
T/C (dose: 300.0 mg/kg/injection, schedule: Q04DX004 (sc), vehicle: saline with Tween-80): 39 % of control, 51 % of control, 81 % of control
T/C [5]: 31 % of control, 70 % of control, 150 % of control

C=CCNc1ccc(C)cc1
T/C [2]: 29 % of control and 99 % of control

CN(C=O)C(C(=O)Nc1cccc2c(OC(=O)C(N(C)C=O)(N(C)C=O)N(C)C=O)c(N=Nc3ccc(S(=O)(=O)Nc4nccs4)cc3)cc(N=Nc3ccc(S(=O)(=O)Nc4nccs4)cc3)c12)(N(C)C=O)N(C)C=O (tested in a mixture with another compound)
T/C (dose: 2400.0 mg/kg/injection, schedule: Q04DX004 (sc), vehicle: saline with Tween-80): 56 % of control and 107 % of control

BrC1c2cccc3cccc(c23)C1Br (stereo unspecified)
T/C [5]: 68 % of control and 109 % of control

CCOC(OCC)C(=O)OCC(=O)[C@]1(O)Cc2c(O)c3c(c(O)c2[C@@H](OC2CC(N)C(O)C(C)O2)C1)C(=O)c1c(OC)cccc1C3=O (stereo partly specified)
T/C (dose: 2.5 mg/kg/injection, schedule: Q04DX004 (sc), vehicle: water): 22 % of control, 74 % of control, 89 % of control
T/C (dose: 5.0 mg/kg/injection, schedule: Q04DX004 (sc), vehicle: water): 23 % of control, 66 % of control, 78 % of control
T/C (dose: 10.0 mg/kg/injection, schedule: Q04DX004 (sc), vehicle: water): 16 % of control and 51 % of control

CSc1ncnc2c1ncn2C1OC(CO)C(O)C1O (stereo unspecified)
T/C (dose: 75.0 mg/kg/injection, schedule: Q04DX004 (sc), vehicle: saline + alcohol): 12 % of control, 28 % of control, 38 % of control

Nc1ncn(C2OC(CO)C(O)C2O)c(=O)n1 (stereo unspecified)
T/C (dose: 400.0 mg/kg/injection, schedule: Q04DX004 (sc), vehicle: suspension in saline): 49 % of control and 76 % of control

CCCCCCCCCCCCCCCCCC(=O)Nc1ccn(C2OC(CO)C(O)C2O)c(=O)n1 (stereo unspecified)
T/C [5]: 3 % of control and 53 % of control

COc1cccc2c1C(=O)c1c(O)c3c(c(O)c1C2=O)C[C@@](O)(C(=O)COC(=O)c1cccnc1)C[C@@H]3OC1CC(N)C(O)C(C)O1 (stereo partly specified)
T/C (dose: 12.0 mg/kg/injection, schedule: Q04DX004 (sc), vehicle: saline): 50 % of control and 90 % of control

CC(C)=CC(=O)OC1C2C(C)=CC(=O)C(O)C2(C)C2C3(O)OCC24C(CC(=O)OC14)C(C)C3O (stereo unspecified)
T/C (dose: 2.5 mg/kg/injection, schedule: Q04DX004 (sc), vehicle: distilled water + Tween-80): 21 % of control and 75 % of control
T/C (dose: 5.0 mg/kg/injection, schedule: Q04DX004 (sc), vehicle: distilled water + Tween-80): 7 % of control and 96 % of control

CC[C@@]1(O)C(=O)OCc2c1cc1n(c2=O)Cc2cc3cc(O)ccc3nc2-1
T/C (dose: 8.0 mg/kg/injection, schedule: Q04DX004 (sc), vehicle: suspension in saline): -20 % of control and 18 % of control
T/C (dose: 16.0 mg/kg/injection, schedule: Q04DX004 (sc), vehicle: suspension in saline): -53 % of control and 4 % of control
T/C (dose: 32.0 mg/kg/injection, schedule: Q04DX004 (sc), vehicle: suspension in saline): -97 % of control and -14 % of control
T/C (dose: 64.0 mg/kg/injection, schedule: Q04DX004 (sc), vehicle: suspension in saline): -98 % of control and -42 % of control

ClC(Cl)(Cl)C1=NCc2nnn(Cc3ccccc3)c2N1
T/C (dose: 225.0 mg/kg/injection, schedule: Q04DX004 (sc), vehicle: saline with Tween-80): 30 % of control and 105 % of control
T/C (dose: 450.0 mg/kg/injection, schedule: Q04DX004 (sc), vehicle: saline with Tween-80): 82 % of control and 112 % of control
T/C (dose: 900.0 mg/kg/injection, schedule: Q04DX004 (sc), vehicle: saline with Tween-80): 14 % of control and 83 % of control
T/C (dose: 1800.0 mg/kg/injection, schedule: Q04DX004 (sc), vehicle: saline with Tween-80): 63 % of control and 93 % of control

Cc1c(N)nc([C@H](CC(N)=O)NC[C@H](N)C(N)=O)nc1C(=O)N[C@H](C(=O)N[C@H](C)[C@@H](O)[C@H](C)C(=O)N[C@H](C(=O)NCCc1nc(-c2nc(C(=O)NCCC[S+](C)C)cs2)cs1)[C@@H](C)O)C(OC1OC(CO)C(O)C(O)C1OC1OC(CO)C(O)C(OC(N)=O)C1O)c1cnc[nH]1 (stereo partly specified)
T/C [6]: 19 % of control and 91 % of control
T/C (dose: 32.0 mg/kg/injection, schedule: Q01DX010 (sc), vehicle: saline): 17 % of control and 91 % of control

COc1cc(NCc2ccc3nc(N)nc(N)c3c2C)cc(OC)c1OC
T/C (dose: 1.25 mg/kg/injection, schedule: Q01DX010 (sc), vehicle: sodium bicarbonate): 35 % of control, 122 % of control, 157 % of control
T/C (dose: 2.5 mg/kg/injection, schedule: Q01DX010 (sc), vehicle: sodium bicarbonate): 72 % of control, 85 % of control, 160 % of control
T/C (dose: 5.0 mg/kg/injection, schedule: Q01DX010 (sc), vehicle: sodium bicarbonate): 74 % of control, 80 % of control, 177 % of control

OC(C1CO1)C(O)C1CO1 (stereo unspecified)
T/C [3]: 81 % of control and 159 % of control

O=NN(CCCl)C(=O)NCCCl
T/C [6]: 52 % of control and 121 % of control

O=C([CH-]C(=O)C(F)(F)F)c1ccccc1.O=C([CH-]C(=O)C(F)(F)F)c1ccccc1.O=C([CH-]C(=O)C(F)(F)F)c1ccccc1.O=C([CH-]C(=O)C(F)(F)F)c1ccccc1.[Eu+3].c1ccncc1
T/C [7]: 56 % of control, 101 % of control, 115 % of control
T/C (dose: 400.0 mg/kg/injection, schedule: Q01DX010 (sc), vehicle: Klucel (hydroxypropylcellulose) (HPC)): 38 % of control, 41 % of control, 71 % of control

COc1ccc(CC2C(=O)NC(C)C(=O)N(C)C3C(=O)N(C)C(Cc4ccc(O)c(c4)Oc4ccc(cc4)C3O)C(=O)NC(C)C(=O)NC(C)C(=O)N2C)cc1 (stereo unspecified)
T/C (dose: 0.5 mg/kg/injection, schedule: Q01DX010 (sc), vehicle: saline with Tween-80): 23 % of control and 58 % of control
T/C (dose: 1.0 mg/kg/injection, schedule: Q01DX010 (sc), vehicle: saline with Tween-80): 3 % of control, 33 % of control, 62 % of control
T/C (dose: 2.0 mg/kg/injection, schedule: Q01DX010 (sc), vehicle: saline with Tween-80): -47 % of control, 94 % of control, 160 % of control

O=C1C=CN(C2OC(CO)C(O)C2O)C(=O)C1 (stereo unspecified)
T/C (dose: 25.0 mg/kg/injection, schedule: Q01DX010 (sc), vehicle: saline): 65 % of control and 94 % of control

COC(=O)Nc1cccc(-c2nc3ccc(NC(=O)OC)cc3c(=O)n2-c2ccccc2)c1
T/C [1]: 49 % of control, 104 % of control, 158 % of control
T/C [2]: -1 % of control and 92 % of control
T/C [7]: 17 % of control and 55 % of control

CC1OC(=O)C(C(C)C)NC(=O)C(C(C)C)OC(=O)C(C(C)C)NC(=O)C(C)OC(=O)C(C(C)C)NC(=O)C(C(C)C)OC(=O)C(C(C)C)NC(=O)C(C)OC(=O)C(C(C)C)NC(=O)C(C(C)C)OC(=O)C(C(C)C)NC1=O (stereo unspecified)
T/C (dose: 10.0 mg/kg/injection, schedule: Q01DX010 (sc), vehicle: saline with Tween-80): 9 % of control and 57 % of control
T/C (dose: 20.0 mg/kg/injection, schedule: Q01DX010 (sc), vehicle: saline with Tween-80): 23 % of control and 77 % of control
T/C (dose: 40.0 mg/kg/injection, schedule: Q01DX010 (sc), vehicle: saline with Tween-80): -24 % of control, 51 % of control, 58 % of control

C=C(NC(=O)C(=C)NC(=O)c1csc(C2=NC3c4csc(n4)C4NC(=O)c5csc(n5)C(C(C)(O)C(C)O)NC(=O)C5CSC(=N5)/C(=C/C)NC(=O)C(C(C)O)NC(=O)c5csc(n5)C3(CC2)NC(=O)C(C)NC(=O)C(=C)NC(=O)C(=C)NC(=O)C(C(C)C)NC2C=Cc3c(C(C)O)cc(nc3C2O)C(=O)OC4C)n1)C(N)=O (stereo unspecified)
T/C (dose: 500.0 mg/kg/injection, schedule: Q04DX004 (sc), vehicle: suspension in saline): 82 % of control and 168 % of control
T/C (dose: 1000.0 mg/kg/injection, schedule: Q04DX004 (sc), vehicle: suspension in saline): -15 % of control and 81 % of control

COc1cccc2c1C(=O)c1c(O)c3c(c(O)c1C2=O)C[C@@](O)(C(C)=O)C[C@@H]3OC1CC(N)C(O)C(C)O1 (stereo partly specified)
T/C [3]: 41 % of control and 201 % of control
T/C [4]: 11 % of control, 47 % of control, 49 % of control
